Structures are written as SMILES. Among all 310,000 compounds or so, about 14,000 (4.5%) showed an effect of 50% or more. The effect is printed as a negative number. The list shows a part of the results.
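Further: peak tail current of the secondary pulse compared with the same well before compound.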

This experiment deals with human ether-à-go-go-related gene (hERG) potassium channel (human, UniProt Q12809). Description: primary screen, population patch clamp on CHO cells stably expressing hERG.
human ether-à-go-go-related gene (hERG) potassium channel, sequence (Q12809 whole entry, looked up): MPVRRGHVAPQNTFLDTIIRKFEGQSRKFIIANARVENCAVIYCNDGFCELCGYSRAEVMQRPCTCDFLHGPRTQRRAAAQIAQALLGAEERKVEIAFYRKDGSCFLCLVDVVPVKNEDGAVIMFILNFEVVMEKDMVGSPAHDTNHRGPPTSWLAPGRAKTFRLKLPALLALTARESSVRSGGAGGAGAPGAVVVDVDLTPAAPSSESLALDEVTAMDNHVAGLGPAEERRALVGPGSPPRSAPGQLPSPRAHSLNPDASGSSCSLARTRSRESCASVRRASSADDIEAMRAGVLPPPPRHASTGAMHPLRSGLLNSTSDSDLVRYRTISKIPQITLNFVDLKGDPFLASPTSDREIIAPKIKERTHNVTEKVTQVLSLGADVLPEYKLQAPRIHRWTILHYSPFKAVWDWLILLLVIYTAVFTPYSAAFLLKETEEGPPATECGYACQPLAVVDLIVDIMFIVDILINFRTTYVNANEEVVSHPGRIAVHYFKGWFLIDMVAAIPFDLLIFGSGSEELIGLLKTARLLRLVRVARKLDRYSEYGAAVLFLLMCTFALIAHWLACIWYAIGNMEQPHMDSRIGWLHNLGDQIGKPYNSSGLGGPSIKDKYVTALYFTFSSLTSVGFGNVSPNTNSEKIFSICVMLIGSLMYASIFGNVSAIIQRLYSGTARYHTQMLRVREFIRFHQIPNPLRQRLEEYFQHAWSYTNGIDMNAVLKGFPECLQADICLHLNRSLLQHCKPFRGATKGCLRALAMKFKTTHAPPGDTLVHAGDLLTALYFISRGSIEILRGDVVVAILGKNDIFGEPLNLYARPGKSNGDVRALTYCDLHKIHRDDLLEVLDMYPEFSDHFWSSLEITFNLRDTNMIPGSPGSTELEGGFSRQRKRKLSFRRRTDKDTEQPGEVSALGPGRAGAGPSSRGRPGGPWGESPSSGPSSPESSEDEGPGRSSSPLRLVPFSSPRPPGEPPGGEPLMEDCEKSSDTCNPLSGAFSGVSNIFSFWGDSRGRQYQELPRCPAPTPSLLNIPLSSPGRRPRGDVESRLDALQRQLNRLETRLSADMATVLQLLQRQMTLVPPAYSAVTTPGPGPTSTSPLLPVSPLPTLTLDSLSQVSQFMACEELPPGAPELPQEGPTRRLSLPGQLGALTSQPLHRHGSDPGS
For the compound `COc1ccc(C2=CC(=O)CC(c3ccc(F)cc3)C2)cn1` (stereo not drawn), the “hERG current change (%, negative = inhibition) at 10uM” value is on record as -61.1%.
The same measure for `CCC1CCC(C(=O)NNC(=O)OC)CC1` (stereo not drawn): -0.0223%; for `CCOC(=O)C1=C(CC)Nc2ccccc2N=C1NC(=O)c1ccc(S(=O)(=O)N2CCCC2)cc1`: -13.6%.
The same measure for `CCN(CCNC(=O)c1ccc(C#N)cc1)c1cccc(C)c1`: -36.3%.
With `CC(NC(=O)c1cc(-c2ccncc2)nc2ccc(Cl)cc12)C1CCCO1` (stereo not drawn), the “hERG current change (%, negative = inhibition) at 10uM” value was 4.23%.
The figure for `O=C(O)c1nn(-c2ccc(F)cc2)ccc1=O` is 27.8%.
The same measure for `O=S(=O)(Nc1ccc(-n2cnnn2)cc1)c1ccc(Cl)cc1`: -18.2%; for `Cc1csc(C(C#N)C(=O)c2cc3ccccc3o2)n1` (stereo not drawn): -7.89%; for `CCc1ccccc1N1C(=O)CC(N2CCc3ccccc32)C1=O` (stereo not drawn): -16%.
The same measure for `O=C(COc1ccc(Cl)cc1)NCc1nnc(SCC(=O)NC2CCCCC2)o1`: 13.1%; for `O=C(NCC(c1ccco1)N1CCCC1)c1cccc(S(=O)(=O)N2CCOCC2)c1` (stereo not drawn): -0.947%; for `O=C(c1ccccc1)N1CC(COc2ccccc2)OC(c2ccco2)O1` (stereo not drawn): -14.4%.
As to `CC(C)N(CC(N)=O)c1ccc(S(=O)(=O)N2CCCC2)cn1`, the “hERG current change (%, negative = inhibition) at 10uM” value is -13.7%.
The same measure for `CC(OC(=O)c1ccccn1)C(=O)Nc1ccc(C(F)(F)F)cc1` (stereo not drawn): -14.4%.
For the compound `Clc1ccc(NC2=NCCCS2)cc1Cl`, the “hERG current change (%, negative = inhibition) at 10uM” value is on record as 9.94%.
The same measure for `Cc1ccc(NC(=O)CCOc2ccccc2)c(C)c1`: 21%; for `N#CCc1cnc2ccccc2n1`: 11.7%; for `COc1ccc(CN2CCN(Cc3ccco3)CC2)cc1OC.O=C(O)C(=O)O`: 1.22%.
The same measure for `CCCC(=O)NC(c1ccc(N(C)C)cc1)c1c(O)ccc2ccccc12` (stereo not drawn): 0.887%; for `COc1ccccc1NC(=O)Cn1nnc(-c2ccccc2NC(=O)c2ccco2)n1`: 17.8%; for `Cc1ccc(S(=O)(=O)N2CCC(=O)N(CCOC(=O)Nc3ccccc3C)CC2)cc1`: -26.8%.
The figure for `Cc1cccc(OCCCC(=O)O)c1` is 3.93%.
In the case of `CCOC(=O)c1c[nH]n(-c2ccccc2)c1=O`, the “hERG current change (%, negative = inhibition) at 10uM” value came out at 22.7%.
The figure for `CCn1cc(NC(=O)CCl)c(C)n1` is 16.6%; for `CC1CCCCN1c1ccc(N)cc1C(N)=O` (stereo not drawn) it is 6.89%.
With `Cc1ccc(-n2c(C)cc(/C=N/NC(=O)CC3(C)OCCO3)c2C)c(C)c1`, the “hERG current change (%, negative = inhibition) at 10uM” value is recorded as 5.27%.
The same measure for `CN(Cc1nc(-c2cccs2)no1)CC(O)c1ccccc1` (stereo not drawn): 2.22%.

The record behind these values is publication PMC4336329 (PLoS ONE, 2015).
